Results are given in words; binding and its absence hold for the method and conditions named. For some assays here: In cells and extracts the contact can be indirect. Some entries that bind do so weakly or less than the wild type. For some assays here: Where a sequence is shown, tags or fusion partners need not be part of it.

Sequences of proteins named here, by UniProt entry; tags and fusion partners are left off. A change or cut given only in a name is not applied to a line headed by its entry.
UniProt P35222: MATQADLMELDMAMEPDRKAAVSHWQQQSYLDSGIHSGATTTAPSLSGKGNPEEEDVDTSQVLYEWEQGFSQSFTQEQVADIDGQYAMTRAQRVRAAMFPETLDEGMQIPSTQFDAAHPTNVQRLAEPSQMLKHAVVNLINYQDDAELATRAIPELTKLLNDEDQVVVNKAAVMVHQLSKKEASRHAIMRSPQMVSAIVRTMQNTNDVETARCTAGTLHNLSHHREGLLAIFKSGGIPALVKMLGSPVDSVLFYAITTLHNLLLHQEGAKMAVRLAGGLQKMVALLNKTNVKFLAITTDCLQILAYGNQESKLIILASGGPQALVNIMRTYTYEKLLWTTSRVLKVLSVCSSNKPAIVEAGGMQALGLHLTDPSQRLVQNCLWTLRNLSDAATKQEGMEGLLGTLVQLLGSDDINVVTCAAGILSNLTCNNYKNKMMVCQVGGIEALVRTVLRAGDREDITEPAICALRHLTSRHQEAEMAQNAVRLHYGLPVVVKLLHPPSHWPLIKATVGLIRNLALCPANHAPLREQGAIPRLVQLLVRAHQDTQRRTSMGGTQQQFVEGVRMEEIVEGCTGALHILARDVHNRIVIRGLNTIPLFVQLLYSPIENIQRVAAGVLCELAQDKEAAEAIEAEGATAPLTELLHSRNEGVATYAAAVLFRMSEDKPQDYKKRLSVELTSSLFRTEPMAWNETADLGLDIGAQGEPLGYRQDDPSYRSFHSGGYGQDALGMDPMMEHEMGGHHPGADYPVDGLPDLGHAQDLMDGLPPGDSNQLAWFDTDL
UniProt Q9NQB0: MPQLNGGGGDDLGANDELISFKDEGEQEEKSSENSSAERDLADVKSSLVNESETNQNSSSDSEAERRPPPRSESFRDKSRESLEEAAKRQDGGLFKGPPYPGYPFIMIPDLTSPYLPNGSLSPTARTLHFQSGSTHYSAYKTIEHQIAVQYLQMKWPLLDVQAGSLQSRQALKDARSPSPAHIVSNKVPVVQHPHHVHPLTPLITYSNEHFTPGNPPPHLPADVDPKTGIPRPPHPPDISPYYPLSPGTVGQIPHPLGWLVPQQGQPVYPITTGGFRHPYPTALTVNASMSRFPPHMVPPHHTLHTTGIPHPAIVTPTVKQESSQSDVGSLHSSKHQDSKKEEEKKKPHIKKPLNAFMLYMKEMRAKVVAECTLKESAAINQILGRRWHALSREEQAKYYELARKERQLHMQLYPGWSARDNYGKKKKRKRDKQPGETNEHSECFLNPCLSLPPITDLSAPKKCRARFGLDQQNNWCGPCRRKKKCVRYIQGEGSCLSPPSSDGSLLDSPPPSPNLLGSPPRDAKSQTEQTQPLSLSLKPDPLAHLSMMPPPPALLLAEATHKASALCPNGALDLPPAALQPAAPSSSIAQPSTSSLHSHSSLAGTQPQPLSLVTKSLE
UniProt P36402: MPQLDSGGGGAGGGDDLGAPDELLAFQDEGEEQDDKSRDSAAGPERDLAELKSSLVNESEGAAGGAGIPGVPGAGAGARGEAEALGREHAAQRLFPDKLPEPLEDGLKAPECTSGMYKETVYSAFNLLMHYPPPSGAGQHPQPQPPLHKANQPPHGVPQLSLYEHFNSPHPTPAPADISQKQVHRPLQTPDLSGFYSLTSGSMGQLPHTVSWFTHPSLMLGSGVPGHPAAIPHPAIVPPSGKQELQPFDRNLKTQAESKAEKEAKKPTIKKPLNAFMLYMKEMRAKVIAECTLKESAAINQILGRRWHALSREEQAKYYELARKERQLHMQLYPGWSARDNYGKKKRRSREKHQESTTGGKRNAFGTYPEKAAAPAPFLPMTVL

The target of test [1] is T1, special AT-rich binding protein 1 (SATB1), endogenous (human (endogenous in Jurkat, human thymocytes, HEK 293T)) (UniProt Q01826).
T1 sequence: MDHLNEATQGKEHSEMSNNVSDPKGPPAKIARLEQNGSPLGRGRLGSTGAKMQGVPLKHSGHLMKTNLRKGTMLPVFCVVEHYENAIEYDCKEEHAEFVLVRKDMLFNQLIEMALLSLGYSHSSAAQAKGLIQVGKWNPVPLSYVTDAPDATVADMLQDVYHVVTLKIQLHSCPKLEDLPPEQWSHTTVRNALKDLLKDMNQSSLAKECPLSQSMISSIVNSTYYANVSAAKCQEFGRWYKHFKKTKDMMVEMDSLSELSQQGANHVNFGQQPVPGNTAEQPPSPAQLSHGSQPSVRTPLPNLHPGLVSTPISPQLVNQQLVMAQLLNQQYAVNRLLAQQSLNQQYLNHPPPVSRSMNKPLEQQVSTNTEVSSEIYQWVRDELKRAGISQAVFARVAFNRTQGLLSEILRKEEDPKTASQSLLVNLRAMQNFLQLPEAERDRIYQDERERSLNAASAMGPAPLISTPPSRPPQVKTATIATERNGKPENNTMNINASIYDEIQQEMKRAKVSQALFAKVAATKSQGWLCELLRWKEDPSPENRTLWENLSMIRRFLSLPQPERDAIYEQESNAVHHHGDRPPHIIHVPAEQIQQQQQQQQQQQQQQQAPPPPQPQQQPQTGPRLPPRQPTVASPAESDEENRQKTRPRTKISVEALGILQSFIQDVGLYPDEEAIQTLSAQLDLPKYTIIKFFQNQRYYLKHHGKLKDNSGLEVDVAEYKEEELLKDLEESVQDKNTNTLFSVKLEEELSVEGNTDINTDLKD
The test can be described thus: co-IP; HEK 293T cells overexpressing VP-16 fused regions of β-catenin; IP anti-SATB1, WB anti-β-catenin.

The target of test [2] is T1, special AT-rich binding protein 1 (SATB1), endogenous (human (endogenous in Jurkat, human thymocytes, HEK 293T)). The test can be described thus: co-IP; extracts of LiCl-treated HEK 293T cells overexpressing RFP-fused β-catenin 1–576 or 577–780 or none; IP anti-SATB1, WB anti-β-catenin.
For test [3] the target is unchanged. The test can be described thus: co-IP; LiCl treated extracts of HEK 293T cells transfected with Flag-TCF4 or empty Flag vector; IP anti-SATB1, WB anti-β-catenin.
The target of test [4] is T2, 6XHis-SATB1 (UniProt Q01826).
T2 sequence: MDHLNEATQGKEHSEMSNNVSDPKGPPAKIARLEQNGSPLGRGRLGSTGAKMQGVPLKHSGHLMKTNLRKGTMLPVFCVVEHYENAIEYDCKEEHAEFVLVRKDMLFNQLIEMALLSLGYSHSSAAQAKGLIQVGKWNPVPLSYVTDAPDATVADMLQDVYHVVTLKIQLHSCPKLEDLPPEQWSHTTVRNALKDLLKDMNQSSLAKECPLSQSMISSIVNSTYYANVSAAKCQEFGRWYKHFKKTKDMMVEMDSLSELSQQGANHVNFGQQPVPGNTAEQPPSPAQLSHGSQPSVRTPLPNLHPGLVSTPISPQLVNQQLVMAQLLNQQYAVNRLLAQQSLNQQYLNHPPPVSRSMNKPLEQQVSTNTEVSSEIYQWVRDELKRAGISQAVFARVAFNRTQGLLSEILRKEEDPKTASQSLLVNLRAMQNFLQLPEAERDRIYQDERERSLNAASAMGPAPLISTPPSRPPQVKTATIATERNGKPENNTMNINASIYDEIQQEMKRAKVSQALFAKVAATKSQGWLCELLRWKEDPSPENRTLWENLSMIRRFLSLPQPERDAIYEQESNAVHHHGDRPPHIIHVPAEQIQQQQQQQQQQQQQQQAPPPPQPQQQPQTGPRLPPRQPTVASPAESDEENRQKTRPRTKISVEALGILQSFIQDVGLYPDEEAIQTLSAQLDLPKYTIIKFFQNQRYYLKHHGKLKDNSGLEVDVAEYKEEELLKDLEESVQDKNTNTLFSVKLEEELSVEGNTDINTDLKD
The test can be described thus: pull-down; 100 µg SW480 nuclear extract passed on immobilised SATB1 (6XHis-SATB1 on Ni-NTA beads) and its GST-fused domains; WB anti-β-catenin; only the target purified.

Test [5] deals with T1, special AT-rich binding protein 1 (SATB1), endogenous (human (endogenous in Jurkat, human thymocytes, HEK 293T)). The test can be described thus: co-IP; Jurkat nuclear extract; IP with anti-β-catenin or anti-SATB1, WB with anti-SATB1 or anti-β-catenin; 1× PBS, 0.1% Triton X-100, 4°C.
The target in test [6] is T3, Flag:PDZ (1–204 aa) of SATB1 (UniProt Q01826).
T3 sequence: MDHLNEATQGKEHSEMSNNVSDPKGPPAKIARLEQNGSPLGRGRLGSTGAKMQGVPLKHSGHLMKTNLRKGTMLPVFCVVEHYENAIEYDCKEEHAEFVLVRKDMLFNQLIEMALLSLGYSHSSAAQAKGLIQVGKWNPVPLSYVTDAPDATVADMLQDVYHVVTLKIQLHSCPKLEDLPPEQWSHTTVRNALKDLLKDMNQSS
The test can be described thus: co-IP; extracts of HEK 293T cells overexpressing 3XFlag-SATB1 and its domains; IP anti-Flag, WB anti-β-catenin.

Test [7] addresses T4, Flag:CD+HD (330–763 aa) of SATB1 (UniProt Q01826).
T4 sequence: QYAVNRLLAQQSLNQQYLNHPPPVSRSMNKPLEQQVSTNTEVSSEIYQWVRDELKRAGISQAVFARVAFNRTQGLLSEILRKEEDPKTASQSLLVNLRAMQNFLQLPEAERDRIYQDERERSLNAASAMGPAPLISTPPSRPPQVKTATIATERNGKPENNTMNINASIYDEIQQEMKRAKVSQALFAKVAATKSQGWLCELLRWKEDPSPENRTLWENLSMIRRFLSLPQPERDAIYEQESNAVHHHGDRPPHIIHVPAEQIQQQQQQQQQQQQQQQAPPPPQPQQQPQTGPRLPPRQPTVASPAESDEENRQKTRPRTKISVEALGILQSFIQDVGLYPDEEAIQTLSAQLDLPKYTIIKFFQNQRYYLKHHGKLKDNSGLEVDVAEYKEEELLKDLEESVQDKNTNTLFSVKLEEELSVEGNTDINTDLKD
The description is as above.

Test [8] deals with GST-β-catenin (UniProt P35222). The test can be described thus: pull-down; in vitro competition: recombinant SATB1 domain incubated with GST-β-catenin on glutathione-Sepharose preloaded with TCF-4; read-out is loss of bound TCF-4; both purified.
The target of test [9] is GST-β-catenin (UniProt P35222). Put plainly: pull-down; 35S-labeled in vitro translated SATB1 incubated 2–3 h with GST-β-catenin or GST on glutathione Sepharose beads; washed with 1× PBS, 0.1% triton X-100; eluted in SDS loading buffer; only the target purified.
The target of test [10] is TCF-4, endogenous (human (endogenous in HEK 293T)) (UniProt Q9NQB0). The test can be described thus: co-IP; nuclear extracts of HEK 293T cells cultured with or without LiCl for 24 h; IP anti-TCF-4, immunoblot anti-SATB1. For orientation: A western blot detects proteins with antibodies after separation by electrophoresis.
Test [11] addresses GST-β-catenin (UniProt P35222). The test can be described thus: pull-down; 100 µg Jurkat nuclear extract passed on immobilised GST-β-catenin and its domains on glutathione Sepharose; WB anti-SATB1; only the target purified.
The target in test [12] is TCF-1, endogenous (human (endogenous in human thymocytes)) (UniProt P36402). The test can be described thus: co-IP; nuclear extracts of human thymocytes treated with LiCl for 24 h; IP anti-TCF-1, immunoblot anti-SATB1.
Test [13] deals with β-catenin, endogenous (human (endogenous in Jurkat, human thymocytes, HEK 293T, SW480)) (UniProt P35222). Put plainly: co-IP; Jurkat nuclear extract; IP with anti-β-catenin or anti-SATB1, WB with anti-SATB1 or anti-β-catenin; 1× PBS, 0.1% Triton X-100, 4°C.
The target is the same in test [14]. The test can be described thus: co-IP; nuclear extracts of BIO treated and control human thymocytes; IP anti-β-catenin, WB anti-SATB1.

For “VP-16 fused N-terminal region (aa 1–137) of β-catenin (from UniProt P35222 1-137) (domain or fragment)”, the binding entry in test [1] is given as “no binding”.
Regarding “RFP-fused ΔC-term (1–576) of β-catenin (from UniProt P35222 1-576) (domain or fragment)”, the binding result in test [2] was “no binding”.
Same read-out and setting: as for “RFP-fused C-terminus (577–780) of β-catenin (from UniProt P35222 577-780) (domain or fragment)”, the entry is “binds”.
Consider “β-catenin, endogenous (from UniProt P35222 1-781)”, for which the binding result is on record as “binds” in [2]; “binds” in [3]; “binds” in [4]; “binds” in [5]; “binds” in test [6]; “no binding” in [7].
For “VP-16 fused C-terminal region (aa 666–780) of β-catenin (from UniProt P35222 666-780) (domain or fragment)”, the binding result in test [1] is recorded as “binds”.

B1: recombinant PDZ domain of SATB1 (domain or fragment, UniProt Q01826 1-204)
chain: MDHLNEATQGKEHSEMSNNVSDPKGPPAKIARLEQNGSPLGRGRLGSTGAKMQGVPLKHSGHLMKTNLRKGTMLPVFCVVEHYENAIEYDCKEEHAEFVLVRKDMLFNQLIEMALLSLGYSHSSAAQAKGLIQVGKWNPVPLSYVTDAPDATVADMLQDVYHVVTLKIQLHSCPKLEDLPPEQWSHTTVRNALKDLLKDMNQSS
Consider B1, for which the binding result in [8] was “binds”.

B2: 35S-labeled SATB1 (protein, UniProt Q01826 1-763)
chain: MDHLNEATQGKEHSEMSNNVSDPKGPPAKIARLEQNGSPLGRGRLGSTGAKMQGVPLKHSGHLMKTNLRKGTMLPVFCVVEHYENAIEYDCKEEHAEFVLVRKDMLFNQLIEMALLSLGYSHSSAAQAKGLIQVGKWNPVPLSYVTDAPDATVADMLQDVYHVVTLKIQLHSCPKLEDLPPEQWSHTTVRNALKDLLKDMNQSSLAKECPLSQSMISSIVNSTYYANVSAAKCQEFGRWYKHFKKTKDMMVEMDSLSELSQQGANHVNFGQQPVPGNTAEQPPSPAQLSHGSQPSVRTPLPNLHPGLVSTPISPQLVNQQLVMAQLLNQQYAVNRLLAQQSLNQQYLNHPPPVSRSMNKPLEQQVSTNTEVSSEIYQWVRDELKRAGISQAVFARVAFNRTQGLLSEILRKEEDPKTASQSLLVNLRAMQNFLQLPEAERDRIYQDERERSLNAASAMGPAPLISTPPSRPPQVKTATIATERNGKPENNTMNINASIYDEIQQEMKRAKVSQALFAKVAATKSQGWLCELLRWKEDPSPENRTLWENLSMIRRFLSLPQPERDAIYEQESNAVHHHGDRPPHIIHVPAEQIQQQQQQQQQQQQQQQAPPPPQPQQQPQTGPRLPPRQPTVASPAESDEENRQKTRPRTKISVEALGILQSFIQDVGLYPDEEAIQTLSAQLDLPKYTIIKFFQNQRYYLKHHGKLKDNSGLEVDVAEYKEEELLKDLEESVQDKNTNTLFSVKLEEELSVEGNTDINTDLKD
modifications: 35S-labeled
Take B2: the binding entry in test [9] is “binds”.

B3: special AT-rich binding protein 1 (SATB1), endogenous (protein, UniProt Q01826 1-763)
chain: MDHLNEATQGKEHSEMSNNVSDPKGPPAKIARLEQNGSPLGRGRLGSTGAKMQGVPLKHSGHLMKTNLRKGTMLPVFCVVEHYENAIEYDCKEEHAEFVLVRKDMLFNQLIEMALLSLGYSHSSAAQAKGLIQVGKWNPVPLSYVTDAPDATVADMLQDVYHVVTLKIQLHSCPKLEDLPPEQWSHTTVRNALKDLLKDMNQSSLAKECPLSQSMISSIVNSTYYANVSAAKCQEFGRWYKHFKKTKDMMVEMDSLSELSQQGANHVNFGQQPVPGNTAEQPPSPAQLSHGSQPSVRTPLPNLHPGLVSTPISPQLVNQQLVMAQLLNQQYAVNRLLAQQSLNQQYLNHPPPVSRSMNKPLEQQVSTNTEVSSEIYQWVRDELKRAGISQAVFARVAFNRTQGLLSEILRKEEDPKTASQSLLVNLRAMQNFLQLPEAERDRIYQDERERSLNAASAMGPAPLISTPPSRPPQVKTATIATERNGKPENNTMNINASIYDEIQQEMKRAKVSQALFAKVAATKSQGWLCELLRWKEDPSPENRTLWENLSMIRRFLSLPQPERDAIYEQESNAVHHHGDRPPHIIHVPAEQIQQQQQQQQQQQQQQQAPPPPQPQQQPQTGPRLPPRQPTVASPAESDEENRQKTRPRTKISVEALGILQSFIQDVGLYPDEEAIQTLSAQLDLPKYTIIKFFQNQRYYLKHHGKLKDNSGLEVDVAEYKEEELLKDLEESVQDKNTNTLFSVKLEEELSVEGNTDINTDLKD
B3: the binding result in test [10] is “no binding”; in test [11] it was “binds”; in [12] it was “no binding”; in [13], “binds”; in test [14], “binds”.

Source of the values: paper PMC2811152.
